According to PubChem BioAssay AID504466 (National Center for Advancing Translational Sciences (NCATS), 2011):
Screen size: about 330,000 compounds; about 4,200 (1.3%) were called active. Inconclusive means that the source gave no clear call. Such entries were picked first, then a sample of the others. Calls follow the shape of the dose curve; as a rule, active = well fitted activation curve with a large enough effect; inconclusive = small, poorly fitted or top-dose-only effect; inactive = no such curve, though single readings can be large or run the other way. Where the call is inconclusive, the potency comes from a doubtful curve fit.

experiment: qHTS screen for small molecules that induce genotoxicity in human embryonic kidney (HEK293T) cells expressing luciferase-tagged ELG1; settings: HEK293T ELG1-luciferase reporter, luminescence, 16 h; series mostly up to 46 µM; also: nearly all actives have a fitted effect of over 60% in size
Procedure, shortened: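 Reporter readout depends on ELG1 protein level, which increases with genetic stress. After 16 hr compound exposure at 37 °C, luciferase activity was quantified using ONE-Glo.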
Potency is read from the fitted curve at half-maximal effect; tags tell the direction and shape of the fitted curve.

Row | Compound | Potency
1 | CN1CCc2c(sc(NC(=O)c3ccc(S(=O)(=O)N4CCCCCC4)cc3)c2C(N)=O)C1 | inconclusive: 29.1 µM [activator, single point]
2 | CCN(CC)c1ccc(/C=N/NC(=O)c2ccccn2)cc1 | inconclusive: 3.66 µM [activator, full curve]
3 | COc1cccc2sc3ccc(C#Cc4ccc(N)cc4)cc3c(=O)c12 | inconclusive: 2.91 µM [activator, full curve, poor fit]
4 | O=c1[nH]c(N/N=C\c2ccc3c(c2)OCO3)nc2ccccc12 | inconclusive: 2.06 µM [activator, partial curve]
5 | Cc1ccccc1/C=C1\CCCc2ccccc2C1=O | inconclusive: 4.61 µM [activator, partial curve]
6 | CC(Oc1ccc2ccc(=O)oc2c1)C(=O)NCCN1CCOCC1 (configuration not stated) | inactive
7 | COc1ccc2cc3cc(C(=O)NCCCN4CCC(C)CC4)oc3nc2c1 | inconclusive: 25.9 µM [activator, partial curve, poor fit]
8 | CNC(=S)N1CCN=C1Nc1nc(C)cc(C)n1 | inconclusive: 25.9 µM [activator, single point]
9 | COc1ccc(-n2nc(C(=O)NCC(=O)N3CCN(c4cccc(Cl)c4)CC3)c3ccccc3c2=O)c(OC)c1 | inactive
10 | Cc1nn(-c2ccccc2)c(/N=C/c2ccccc2O)c1-c1ccccc1 | inconclusive: 8.2 µM [activator, partial curve, poor fit]
11 | O=C(Cn1cc2c(n1)CCCC2)N1CCCc2ccccc21 | inconclusive: 25.9 µM [activator, single point]
12 | Cc1ccc2c(c1)cc1c(=O)[nH]ncn12 | inconclusive: 20.6 µM [activator, partial curve, poor fit]
13 | COc1cc(C)ccc1OCC(=O)NC1CCCCCC1 | inconclusive: 23.1 µM [activator, partial curve, poor fit]
14 | Nc1nc(-c2ccccc2)c(N=Nc2ccc(Cl)cc2)s1 | inactive
15 | COc1ccc2cc3cc(C(=O)N(C)C4CCCCC4)oc3nc2c1 | inconclusive: 2.59 µM [activator, partial curve, poor fit]
16 | O=C(NCC1CCOCC1)c1ccc2nc(Cc3cccc(Cl)c3)oc2c1 | inconclusive: 18.3 µM [activator, partial curve, poor fit]
17 | C[C@]12c3[nH]c4ccc(Cl)cc4c3CCN1C(=O)[C@@H](CC(=O)NCc1ccco1)C[C@@H]2C(=O)N1CCOCC1 | inactive
18 | COc1ccc2c(c1)c(=O)oc1c(C)c(OCc3cc(C(=O)O)oc3C)ccc12 | inconclusive: 32.6 µM [activator, partial curve, poor fit]
19 | Cc1cccc(-c2cc3nc(C)cc(NCCCN(C)C)n3n2)c1 | inconclusive: 17.8 µM [activator, single point]
20 | COc1ccc2[nH]c(O)c(N=NC(=O)c3ccc(NS(=O)(=O)c4cccs4)cc3)c2c1 | inconclusive: 23.1 µM [activator, partial curve, poor fit]
21 | CCOc1ccc(-c2nnc(-c3ccccc3)o2)cc1 | inconclusive: 1.64 µM [activator, partial curve]
22 | O=C(Nc1ccc(-c2cnco2)cc1)c1ccc(F)cc1F | inconclusive: 13 µM [activator, partial curve, poor fit]
23 | CCN(CC(=O)Nc1ccc2c(c1)OCCO2)CC(=O)Nc1ccc(C)c(S(=O)(=O)N(C)C)c1 | inactive
24 | CN(C(=O)c1ccccc1C(=O)OCC(=O)c1ccccc1)c1ccccc1 | inactive

Row | Compound | Potency
25 | Cc1ccc(S(=O)(=O)NC(C(=O)N2CCN(S(=O)(=O)c3cccc(F)c3)CC2)C(C)C)cc1 (configuration not stated) | inactive
26 | CCOC(=O)C1CCN(C(=O)/C=C/c2ccccc2OC)CC1 | inactive
27 | O=C(Cc1ccccc1F)N1CCN(S(=O)(=O)c2ccc(Cl)cc2)CC1 | inactive
28 | Cc1ccc(C)c(S(=O)(=O)NCc2ccc(C(=O)NCc3ccccn3)cc2)c1 | inactive
29 | Cc1cc([N+](=O)[O-])ccc1NC(=O)CSc1nnc(C)n1C | inactive
30 | O=C(Nc1nc(-c2ccccc2)cs1)NC1CCCCC1 | active: 23.1 µM
31 | O=C(Nc1ccccn1)c1ccc(Cl)s1 | inconclusive: 14.6 µM [activator, partial curve, poor fit]
32 | CCOc1ccc(S(=O)(=O)N2CCN(c3ccc(C)cc3C)CC2)cc1 | inconclusive: 29.1 µM [activator, single point]
33 | CC(OC(=O)c1nn(C(C)C)c(=O)c2ccccc12)C(=O)Nc1ncc(Cl)cc1Cl (configuration not stated) | inactive
34 | CC(=O)c1ccc(OCc2cc(C(=O)N3CCOCC3)no2)cc1 | inconclusive: 14.6 µM [activator, partial curve, poor fit]
35 | COc1cccc(C(=O)O/N=C(\N)c2ccccn2)c1OC | active: 1.83 µM
36 | CCOc1ccc(/C=C2/SC(=S)N(n3c(C)ccc3C)C2=O)cc1 | inactive
37 | O=C(CN1C(=O)c2ccccc2S1(=O)=O)Nc1ccc(S(=O)(=O)Nc2ncccn2)cc1 | inactive
38 | N=C1C(c2nc3ccccc3s2)=C(O)CN1CCCO | inconclusive: 31.6 µM [activator, partial curve, poor fit]
39 | O=C(O)c1ccccc1N/N=C\c1ccnc2ccccc12 | active: 0.58 µM
40 | CC(C)Oc1ccc(C(=O)Nc2ccc3c(c2)n(C)c(=O)n3C)cc1 | active: 23.1 µM
41 | COc1ccc(S(=O)(=O)N2CCCCCC2)cc1C(=O)OCc1cccc(OC)c1OC | inactive
42 | Cc1cc(NC(=O)CSc2ncccc2C(=O)O)no1 | inactive
43 | CCCCC(=O)Nc1cc(C(=O)NCCc2ccccc2)ccc1Cl | inconclusive: 8.2 µM [activator, partial curve]
44 | CCN1C(=O)S/C(=C\c2ccc(N3CCOCC3)cc2C)C1=O | inconclusive: 2.59 µM [activator, full curve]
45 | NC(=O)c1ccsc1NC(=O)c1ccco1 | inconclusive: 29.1 µM [activator, partial curve, poor fit]
46 | Cc1ccc(-c2ccc(SCC(=O)Nc3nonc3C)nn2)cc1 | inconclusive: 20 µM [activator, single point]
47 | Cc1cc(NC(=O)CN2C(=O)S/C(=C\c3ccccc3)C2=O)no1 | inconclusive: 0.651 µM [activator, single point]
48 | CCOC(=O)c1c(NC(=O)COC(=O)c2nc(Cl)ccc2Cl)sc(C(=O)NC)c1C | inactive

Row | Compound | Potency
49 | Cc1ccc(Nc2nc(N)nc(COC(=O)C3=COCCO3)n2)cc1 | inconclusive: 10.3 µM [activator, partial curve]
50 | O=C(NC(=S)Nc1ccccc1Cl)C1CC1 | inconclusive: 13 µM [activator, partial curve]
51 | COC(=O)c1ccc(CO/N=C/c2ccc(OC)cc2)o1 | inconclusive: 16.4 µM [activator, partial curve, poor fit]
52 | O=c1[nH][nH]c(=O)c2c(NS(=O)(=O)c3ccccc3)cccc12 | inconclusive: 16.4 µM [activator, partial curve, poor fit]
53 | C[C@H](CO)N1C[C@H](C)[C@@H](CN(C)C(=O)Nc2ccc3c(c2)OCO3)Oc2c(NC(=O)C3CCCCC3)cccc2C1=O | inactive
54 | Cc1ccc(-c2cc(C(=O)O)c3ccccc3n2)s1 | inconclusive: 23.1 µM [activator, partial curve, poor fit]
55 | CCC(CC)c1nnc(NC(=O)C2CC(=O)N(CCc3ccc(OC)c(OC)c3)C2)s1 (configuration not stated) | inactive
56 | O=C(COC(=O)c1cc(Cl)ccc1O)NNC(=O)c1ccccc1F | inactive
57 | O=C(O)/C=C/C(=O)Nc1ccc2nccnc2c1 | inconclusive: 32.6 µM [activator, partial curve, poor fit]
58 | C/C(=N/NC(=O)CN1CCN(S(=O)(=O)c2ccc(Br)cc2)CC1)c1ccco1 | inactive
59 | COc1cc2c(cc1OC)CN(S(=O)(=O)c1cccc(F)c1)CC2 | inactive
60 | CCCOC(=O)c1[nH]c2c(c1C)C(=O)CC(c1cccs1)C2 (configuration not stated) | inconclusive: 2.91 µM [activator, full curve, poor fit]
61 | C/C(=N\N=C(/N)c1nonc1N)c1ccc2c(c1)OCO2 | inconclusive: 2.06 µM [activator, full curve]
62 | Cn1c(CC(=O)NNC(=O)c2ccc(Cl)nc2)nc2ccccc21 | inactive
63 | CC(=O)NCC(=O)OCC(=O)Nc1nc(-c2ccccc2)cs1 | inconclusive: 23.1 µM [activator, partial curve, poor fit]
64 | CNC(=O)c1ccc(Nc2nnc(C)c3ccccc23)cc1 | inactive
65 | CC1=CN2C(=N)/C(=C/c3ccc(C)o3)C(=O)N=C2S1 | inconclusive: 1.46 µM [activator, full curve]
66 | Nc1ccccc1NC(=O)NC(=O)c1ccccc1 | inconclusive: 18.3 µM [activator, partial curve]
67 | Cc1cccc(C(=O)NNC(=O)c2ccc(Cl)cc2)c1O | active: 9.2 µM
68 | O=C(CSc1nc(-c2ccccc2)cc(C(F)(F)F)n1)c1cccc([N+](=O)[O-])c1 | inactive
69 | O=S(=O)(Nc1ccc(Cl)cc1)c1ccc2c(c1)CCO2 | inactive
70 | COc1ccccc1OCc1cc(C(=O)N2CC3C[C@@H]4CC2C[C@H](C3)C4)no1 | inconclusive: 13 µM [activator, partial curve]
71 | Clc1cccc(CSc2nc3ccncc3[nH]2)c1 | inconclusive: 23.1 µM [activator, single point]
72 | Cc1cc(C)n(-c2ccc(C(=O)Nc3nnc(C)s3)cc2)n1 | inconclusive: 23.1 µM [activator, partial curve, poor fit]
